In all, about 33,000 sequences were measured (“E-score (-0.5 to 0.5)”: median about -0.04, highest 2% from about 0.36 on). This is one part of the list.
Target: T1, Hmlalpha2 (UniProt P0CY09)
T1 sequence: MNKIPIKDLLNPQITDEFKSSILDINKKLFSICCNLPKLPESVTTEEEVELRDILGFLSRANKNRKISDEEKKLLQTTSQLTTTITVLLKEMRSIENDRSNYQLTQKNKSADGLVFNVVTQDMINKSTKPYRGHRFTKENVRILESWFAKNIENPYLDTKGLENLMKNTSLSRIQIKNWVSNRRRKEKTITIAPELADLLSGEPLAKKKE
Assay: PBM E-score (8-mer binding enrichment) (E-score (-0.5 to 0.5)); higher = stronger / more preferred TF binding; most listed sequences are background and not binding sites
Settings: protein concentration: 200 nM; construct: GST-full length
Protocol: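 Universal 'all 10-mer' protein binding microarrays (Agilent AMADID 015681) probed with GST-tagged S. cerevisiae TFs (full-length or DBD) made by in vitro transcription/translation (PURExpress), about 100-200 nM. Bound TF was detected with fluorescent anti-GST. Each ungapped 8-mer (which stands for itself and its reverse complement) is scored by the PBM enrichment score (E-score), a modified Wilcoxon-Mann-Whitney statistic from -0.5 to +0.5, computed with the Universal PBM Analysis Suite. Scale: above 0.35 generally sequence-specific binding.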

Sequence	PBM E-score
GTTTACTA	0.356
GGCGTTTA	0.118
ATGTTGAC	0.356
CAGGGGGA	-0.312
GAGTCTAC	-0.0298
CTATCAAC	0.212
GCTTCCCA	-0.268
TTAATGAA	0.221
CTATGCTA	0.201
AAAGCTTC	-0.0159
ATATCGAT	0.00945
GGACATCC	-0.25
CCTACACG	0.393
CCTTGCGC	-0.203
CCAAAGGG	-0.28
ACAGCAGA	0.103
ACACTGTC	0.12
ACGAAGAT	0.0929
GCGGAGCA	-0.306
AAGCACTC	-0.0974
ACATCTTA	0.106
ACTCGTCT	0.0315
AATTTCAC	0.0769
CGCATAGC	-0.0965
CTATTGGC	-0.145

Sequence	PBM E-score
CGAGGGAA	-0.168
GGGAACAA	0.00697
GAGTGAGC	-0.106
AAGGTCAG	-0.105
AGTCCGCG	-0.00885
TCGGGGAA	-0.00686
CCCACGAC	-0.214
CGGGTTAG	-0.176
CCAACTCC	-0.119
AATTGAGC	-0.0316
AAGGCTAG	-0.0575
CGTTGGCC	-0.0166
ACCCTGTA	0.213
ACTGTACT	-0.159
ATCATGTC	0.351
ATAATAGG	0.101
CTCTATTA	-0.0158
CAGAGGGG	-0.319
CGTTACAG	-0.0046
GTTACACA	0.435
AGGGTTCA	0.0416
CTATTTTA	0.112
ATCGTTAA	0.157
CCAACAAG	0.11
GTAATGTA	0.413

Sequence	PBM E-score
CCTGGTAC	0.029
AGTGGTCC	-0.169
AGGCTACC	-0.131
CAGTACGG	0.0414
ATGTTTTG	0.327
GCTTGCCC	-0.351
GCGTCAGC	-0.112
CGCTATAC	0.001
GTACCGTA	-0.021
CTCTATCA	-0.141
GGAAAACA	0.254
GATTGGGC	-0.133
ACTGACCT	-0.157
CAAACGTA	0.206
CGATAAAC	-0.0169
GTCTCAGA	-0.137
ATAACGAC	0.0566
CCAACGAC	-0.114
ACCAGACC	-0.0452
GATTAATA	0.0807
TAAAACAA	0.319
GGGGAATA	-0.0617
ACCTCCGG	-0.124
AGAATCCA	-0.0964
CGACTCGC	-0.221

Sequence	PBM E-score
GATTAGTA	0.168
GTATGTTA	0.414
AAGATATT	-0.0657
GAGAATTA	0.0645
ACGGTGTC	-0.156
GACCGCTC	-0.152
CTCTCCAG	-0.357
AGCTCCCC	-0.323
ACATATGT	0.369
CGATCTGA	-0.181
ACAGCGGC	-0.132
CCCTACAG	-0.297
GATTCAGA	-0.0122
ATCTTCAC	-0.0287
ACGCTTCA	0.0298
CCGGCTTA	-0.0332
AAACCCGT	0.0829
GACCCTGA	-0.21
AAACCGCA	-0.136
AGTAGGTG	-0.0396
TCGGGACA	-0.217
CATCTATC	-0.161
CCCGGTTC	-0.22
CACGTTCA	0.179
AGGACAAA	0.12

Sequence	PBM E-score
GCGCGATA	0.0473
TGCAGAAA	0.148
ATTGAGTC	0.00655
AGTTGTCC	-0.0713
GTCTACGA	-0.217
GTCTAACA	0.218
CGGAACGA	0.0232
AAATTGCA	-0.0487
CCAAACAC	0.124
GCGTGGGA	-0.0491
AATACCAG	0.0615
AACCGCTG	-0.07
GCATTCTA	0.0937
CACCCCCA	-0.115
AAAGCACG	0.0653
CGAAAGGA	-0.177
AAAGCGAG	0.107
AAGACCTG	-0.155
CTAGCTGA	-0.115
TGCGGGAA	-0.136
AGTTATCC	-0.0296
GAAATTGA	0.00035
GCTCAACC	-0.147
AAGAGAAA	-0.0614
AGTAAGAA	0.197

Sequence	PBM E-score
ACGTGTCC	-0.113
CAGCCGTA	-0.0299
ATGGCGAG	-0.15
ACGTACGA	0.00093
CACGATGA	0.163
AGCCCGTG	-0.229
AGTATGGA	-0.154
GTTAAAGA	0.222
AATCAGGC	-0.112
GATTGAGC	0.00679
ACCCTCCT	-0.286
CAGTAGCA	-0.00876
GGTGCAAA	-0.15
ATACCAGA	-0.0298
ACCAGACG	-0.0525
GGGCCGGA	-0.421
ACGAGGCC	-0.274
AACGGGGG	-0.238
ACTTCCAC	-0.0314
GCTTTCAC	0.0724
ATGGTGTG	0.219
CCGAAGCG	-0.227
AAGGGAAA	0.029
ATCCAACA	0.177
CCTGTATC	-0.0207

Sequence	PBM E-score
GCCGAGTA	-0.0684
CATACTAG	0.127
ATGTTGCG	0.287
AGGTACCA	-0.0442
AGATCAAC	0.25
ATCTAAGC	-0.0877
ACCGGTGA	-0.193
CACCCCCG	-0.231
AGGTTTTG	-0.0712
CCCACACG	-0.00838
CCATTACG	0.13
ATCTACCC	-0.0961
GCCCTCCA	-0.218
ACAACTGA	0.137
ACAACTCT	0.0945
ACTGTGCG	0.0676
ACCTCCGA	-0.123
ATTGTGTG	0.112
AGAGTATC	0.0367
GGATGGCA	-0.0636
AAGGGACA	-0.101
TACGTATA	0.327
GGCTTACA	0.249
GGGGCGAA	-0.241
AACACAAC	0.409

Sequence	PBM E-score
AAAGCAAT	0.277
GAAGCTAC	0.114
AAATACCA	0.121
TGTCCTAA	0.0658
GAGCCGGA	-0.186
AGCAAGGG	-0.0619
CTTTGTAA	0.414
AAAGAACG	0.0872
AACGTACC	-0.0493
ACCATTCC	-0.177
ACGGACAG	-0.0708
CGTAGGGA	0.00608
AACTCAGC	0.0157
CAATGAAA	-0.05
CGTTGGAA	0.0703
AGTAACCG	0.0406
CCTCCCCA	-0.233
AACATTGC	0.191
AAGCAAAC	0.134
AGGATGGG	-0.239
AAGCTTCT	-0.0885
AGTTTTCA	0.0311
ATAGTGTA	0.106
GGGATACC	-0.275
CACAAGAA	0.24

Sequence	PBM E-score
GATACCAC	-0.0128
ACGAGCTC	-0.045
TGTCTGAA	0.0998
ACGCGAGT	0.185
CATAGCAG	-0.0586
GGTCGACA	0.0251
AGGTCTAG	-0.167
AGATATAG	0.0882
CTCACGGA	-0.219
ATTGGGAC	-0.202
ACACTGCC	0.154
ACAGAGGG	-0.11
ATTGTATC	0.158
CCCCAGGC	-0.353
ATCAACCG	-0.109
ATAATTAT	0.25
CCTCTACC	-0.22
CTTGTGCC	-0.262
ATAAATGC	-0.0384
ACCTTTCT	0.0694
GTGAATAA	0.249
ATGCTTTG	0.0998
AGACACAA	0.172
CGTAAAAA	0.345
AGGACCCT	-0.133

Sequence	PBM E-score
TATGCATA	0.0713
TGGTTAAA	0.231
CTCAGAGA	-0.0918
CATTTAGA	-0.0502
ACTTTCCA	-0.0191
GGGATTAC	0.317
GTCATCCA	0.0285
ATTCGGCC	-0.0375
ATATCGTG	0.0753
AATGGCCG	-0.00732
AAGGAACA	0.27
GAAGTGCC	-0.0963
CGCACATC	-0.0446
CTCTCGTC	-0.203
CCATCAGG	-0.306
TATCACGA	0.00013
ATATAAGG	0.00845
CTCGTAAC	0.117
GTAAGAAC	0.302
ACAAACCT	0.116
AATTTCAA	0.125
GTATGCTA	0.0741
CACCACAA	0.036
CCGCTAGG	-0.206
AACCTTCT	-0.233

Sequence	PBM E-score
CGGGCACG	-0.0491
GTAATATA	0.361
ACTGGGCA	-0.173
ACGTCGCA	-0.0442
GCGCAATA	-0.0339
AGAAGGGC	-0.202
GGCACATA	0.0277
ATCAGGGG	-0.439
GTGTCCCA	-0.181
AGGTCGAG	0.0391
CAGCGAAC	-0.1
GGAGGCAA	-0.367
AGAGATAA	0.0246
CACACACG	0.279
ATCGGCTG	-0.339
AACGCAGA	0.187
AGTTTTTC	0.0615
CGTGGACC	-0.229
CGTTGCCA	0.0785
ATCGATTC	-0.0308
GGGCTGAA	-0.0472
GACGGTGA	-0.192
CGTAGAGC	0.095
CCATTCGA	-0.0609
CTTCCCAC	-0.164

Sequence	PBM E-score
GCAACCAA	-0.00712
AGAACTAA	0.189
GGAACACC	-0.195
TCAACGCA	0.31
GACCCTCC	-0.282
ATCGACGG	-0.105
GGCTCTAC	-0.0942
TAAGACAA	0.17
CTCCGAGC	-0.152
CATAATTA	0.315
AAGATGTA	0.268
ACCCTAAT	-0.101
ACGGGTTC	-0.19
CGGATCAA	0.00758
CCGCCGCA	-0.196
CCCGGATA	-0.252
CTCTCATC	-0.129
CGTCCACA	-0.0612
ACACCGAC	0.0329
ATGATTTA	0.209
CATCGGGA	-0.111
GGCAAATA	0.036
CAGGAGGG	-0.243
GTCCCATA	-0.175
CGGACACC	-0.209

Sequence	PBM E-score
GGGCGTTA	0.19
GTCCGACA	0.0479
AGCGGAGC	-0.247
TAGTCTGA	0.00755
GGACTATA	-0.0843
AGGTACCG	-0.183
CGAATTGC	-0.173
TCGCGGAA	-0.228
GAATCTGC	-0.125
GAGCCGCA	-0.149
CTACCCCC	-0.327
CCGACCGA	-0.207
ATTAGCAC	0.0472
GGACTGCC	-0.212
ATACGGAT	0.0151
ATCCGGCG	-0.11
ACAGCGCA	-0.0935
ATGTGAAT	0.297
AGCTACAG	-0.129
AAATCCAT	0.135
AGTTTACA	0.405
CCTCCTTC	-0.272
AAAGAAGC	0.0547
CCAAGCGC	-0.0307
CCGACTCC	-0.28

Sequence	PBM E-score
CTTGCGTC	-0.157
TAAAAGGA	0.0439
GGTAATCA	0.14
GCGAATTA	0.153
AGAGAGAC	-0.191
AAGTAGCC	-0.229
GACGTGGA	-0.209
AACATTTC	0.203
GAGCTTGC	-0.319
ACAATTGG	-0.0846
CCCTTTTA	-0.101
CGGACTAG	-0.336
GCCATACC	-0.28
TCGTCAGA	-0.127
GAGTTATA	0.0537
AGGATAGG	-0.257
GGCGAGGA	-0.128
ACATGCGA	0.351
GCGGCAAC	-0.125

From the supplement of paper PMC3334620
